Assay results taken from the supplement of paper PMC11055344.

Legend:
penicillin G = compound: CC1(C)S[C@@H]2[C@H](NC(=O)Cc3ccccc3)C(=O)N2[C@H]1C(=O)O [penicillin G]; assay: Broth microdilution.
amoxicillin = compound: CC1(C)S[C@@H]2[C@H](NC(=O)[C@H](N)c3ccc(O)cc3)C(=O)N2[C@H]1C(=O)O [amoxicillin]; assay: Broth microdilution.

| Test System | MIC (penicillin G) [µg/mL] | MIC (amoxicillin) [µg/mL] |
| --- | --- | --- |
| Streptococcus pneumoniae isolate 142 (PBP alleles 1a 2b 2x: 2_0_3, serotype: 7C) | ≤ 0.01 | ≤ 0.01 |
| Streptococcus pneumoniae isolate 143 (PBP alleles 1a 2b 2x: 0_0_2, serotype: 34) | ≤ 0.01 | ≤ 0.01 |
| Streptococcus pneumoniae isolate 144 (PBP alleles 1a 2b 2x: 3_6_5, serotype: 8) | 0.03 | ≤ 0.01 |
| Streptococcus pneumoniae isolate 145 (PBP alleles 1a 2b 2x: 0_0_0, serotype: 23B) | 0.03 | 0.03 |
| Streptococcus pneumoniae isolate 146 (PBP alleles 1a 2b 2x: 78_0_0, serotype: Serogroup 24) | ≤ 0.01 | ≤ 0.01 |
| Streptococcus pneumoniae isolate 147 (PBP alleles 1a 2b 2x: 0_0_0, serotype: 15A) | 0.03 | 0.03 |
| Streptococcus pneumoniae isolate 148 (PBP alleles 1a 2b 2x: 0_0_2, serotype: 35B) | 0.03 | ≤ 0.01 |
| Streptococcus pneumoniae isolate 149 (PBP alleles 1a 2b 2x: 0_6_2, serotype: 16F) | 0.03 | 0.03 |
| Streptococcus pneumoniae isolate 150 (PBP alleles 1a 2b 2x: New_New_7, serotype: Non-typeable/NCC2a) | 2 | 2 |
| Streptococcus pneumoniae isolate 151 (PBP alleles 1a 2b 2x: 0_0_0, serotype: 35B) | 0.03 | 0.03 |
| Streptococcus pneumoniae isolate 152 (PBP alleles 1a 2b 2x: 2_6_0, serotype: 11A) | ≤ 0.01 | ≤ 0.01 |
| Streptococcus pneumoniae isolate 153 (PBP alleles 1a 2b 2x: 2_6_0, serotype: 11A) | ≤ 0.01 | ≤ 0.01 |
| Streptococcus pneumoniae isolate 154 (PBP alleles 1a 2b 2x: 1_2_2, serotype: 22F) | ≤ 0.01 | ≤ 0.01 |
| Streptococcus pneumoniae isolate 155 (PBP alleles 1a 2b 2x: 1_2_2, serotype: 22F) | 0.03 | ≤ 0.01 |
| Streptococcus pneumoniae isolate 156 (PBP alleles 1a 2b 2x: 2_0_0, serotype: 6E (06B)) | ≤ 0.01 | ≤ 0.01 |
| Streptococcus pneumoniae isolate 157 (PBP alleles 1a 2b 2x: 1_2_2, serotype: 22F) | 0.03 | ≤ 0.01 |
| Streptococcus pneumoniae isolate 158 (PBP alleles 1a 2b 2x: 84_New_New, serotype: 15B/C) | 0.25 | 0.25 |
| Streptococcus pneumoniae isolate 159 (PBP alleles 1a 2b 2x: 2_0_2, serotype: 15B/C) | 0.03 | ≤ 0.01 |
| Streptococcus pneumoniae isolate 160 (PBP alleles 1a 2b 2x: 1_0_187, serotype: 19A) | 0.03 | ≤ 0.01 |
| Streptococcus pneumoniae isolate 161 (PBP alleles 1a 2b 2x: 1_0_0, serotype: 15B/C) | ≤ 0.01 | ≤ 0.01 |
| Streptococcus pneumoniae isolate 162 (PBP alleles 1a 2b 2x: 0_0_3, serotype: 35F) | 0.03 | ≤ 0.01 |
| Streptococcus pneumoniae isolate 163 (PBP alleles 1a 2b 2x: 0_0_3, serotype: 15A) | 0.03 | 0.03 |
| Streptococcus pneumoniae isolate 164 (PBP alleles 1a 2b 2x: 2_0_2, serotype: 21) | 0.03 | ≤ 0.01 |

MIC of nasopharyngeal S. pneumoniae isolates by broth microdilution (range and time not stated); higher = less susceptible. No active / inactive call per row; the paper counts penicillin above 0.06 and amoxicillin above 0.5 mg/L as non-susceptible (EUCAST). The lowest value, 0.01, is taken as the floor ('<='); the source prints it plain. Penicillin G is assumed for 'penicillin'. Isolates are numbered anew. PBP alleles are the type numbers of penicillin-binding proteins 1a, 2b and 2x; equal numbers mean equal sequences.
